Screen size: about 48,000 compounds; about 550 (1.1%) were called active. Roughly 4% stayed inconclusive and do not appear here. Cut-off read from the data, not from the text of the source: active = potency below about 15 µM; inconclusive = mostly about 16 µM to 33 µM; inactive = weaker than that. The list shows a part of the results.
What follows are molecules tested against Lysosomal acid glucosylceramidase (Homo sapiens) (UniProt P04062) (assay: Glucocerebrosidase). Settings: purified enzyme, resorufin glucoside fluorescence (screen aimed at inhibitors), 20 min; series mostly up to 77 µM.
Method in brief: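 Compounds titrated against 0.2 nM normal enzyme, 30 uM resorufin beta-D-glucopyranoside substrate, citrate/phosphate buffer with taurocholate and tween-20, pH 5.9. Reaction ran 20 min at room temperature; fluorescence (Ex 548/Em 600) gave AC50.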
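Note: the screen sought inhibitors.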
Potency is the fitted concentration of half-maximal effect.

Chain of UniProt P04062 (P04062 whole entry, looked up): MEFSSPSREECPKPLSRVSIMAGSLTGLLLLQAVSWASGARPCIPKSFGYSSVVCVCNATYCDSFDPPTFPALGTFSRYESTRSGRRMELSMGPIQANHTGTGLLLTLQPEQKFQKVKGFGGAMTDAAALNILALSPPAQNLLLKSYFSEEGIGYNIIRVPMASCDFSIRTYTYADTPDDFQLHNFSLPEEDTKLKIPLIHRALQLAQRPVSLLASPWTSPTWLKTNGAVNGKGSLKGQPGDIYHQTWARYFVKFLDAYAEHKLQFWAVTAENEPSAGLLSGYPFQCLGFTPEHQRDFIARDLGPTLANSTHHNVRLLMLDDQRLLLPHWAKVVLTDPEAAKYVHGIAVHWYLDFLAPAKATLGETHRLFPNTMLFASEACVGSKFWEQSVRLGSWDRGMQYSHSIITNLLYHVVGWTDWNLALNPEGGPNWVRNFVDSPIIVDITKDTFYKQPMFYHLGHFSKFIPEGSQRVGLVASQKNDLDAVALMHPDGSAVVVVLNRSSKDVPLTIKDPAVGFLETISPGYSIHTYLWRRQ

Potency, inactive:
C=CCc1cccc(CNc2nc3ccccc3n2CCN2CCOCC2)c1O > 76.9 µM
CN(C)c1nc(SCCOC(=O)Nc2ccccc2)nc(N(C)C)n1 > 76.9 µM
CCOc1cccc(NC(=O)C(Cc2cccs2)c2nn[nH]n2)c1 (stereo unspecified) > 76.9 µM
Cc1c(C)n(C(=O)CN2CCC(C(N)=O)CC2)c2ccccc12
Cn1nnc2c(N3CCCCC3)nccc21 > 76.9 µM
C=CCNC(=O)C1CCN(c2nc(C)cc(-c3ccccc3)n2)CC1 > 76.9 µM
CCOC(=O)CSc1nnc(-c2ccoc2C)n1-c1ccc(OCC)cc1 > 76.9 µM
CC1CC(C)CN(CCCNC(=O)C2CCN(S(=O)(=O)N3CCCCC3)CC2)C1 (stereo unspecified) > 76.9 µM
COC(=O)c1cccc(N(C(=O)CNC(=O)c2ccco2)C(C(=O)NC2CCCC2)c2ccco2)c1 (stereo unspecified) > 76.9 µM
CCC(c1nnnn1C1CCCC1)N1CCN(C(=O)c2ccco2)CC1 (stereo unspecified) > 76.9 µM
Cc1ccc(C)n1/N=C1/NC(=O)CS1 > 76.9 µM
CC1CN(C(=O)CSc2ncnc3sccc23)CC(C)O1 (stereo unspecified) > 76.9 µM
NC(=O)c1cnn2c1NC(c1ccc(F)cc1)CC2C(F)(F)F (stereo unspecified) > 76.9 µM
CCc1ccc(N(CC(=O)NC)S(C)(=O)=O)cc1 > 76.9 µM
Nc1nnc(CCN2C(=O)CSC2=O)s1 > 76.9 µM
CCN(CC)C(=O)CSc1nnc([C@@H](N)Cc2ccccc2)o1 > 76.9 µM
CCOC(=O)C1C(=O)NC(SCC(=O)OC)=C(C#N)C1c1ccccc1OCC (stereo unspecified) > 76.9 µM
O=C(CN1CCN(c2ccc(F)cc2)CC1)Nc1ccc(-n2cnnn2)cc1 > 76.9 µM
Cc1ccc(C2CC(=O)NC3=C2C(=O)CCC3)cc1Br (stereo unspecified) > 76.9 µM
N#Cc1sc2nc3c(c(-c4ccco4)c2c1N)CCCC3 > 76.9 µM
Cc1cc(C(=O)N2CCN(c3cccc(Cl)c3)CC2)c(C)o1 > 76.9 µM
CN1CCc2c(sc3nc(SCC(=O)N4CCOCC4)nc(N)c23)C1 > 76.9 µM
CCOC(=O)N1CCN(C(=O)CS(=O)(=O)c2cn(Cc3ccccc3C)c3ccccc23)CC1
Cc1nc(NCCN2CCOCC2)c2nnn(Cc3ccccc3Cl)c2n1 > 76.9 µM
CC(=O)c1sc2nc(SCC(=O)N3CCCCC3)[nH]c(=O)c2c1C > 76.9 µM
CCc1nc2ccccc2c(C(=O)OCC(=O)NCCCN2CCCC2=O)c1C > 76.9 µM

— PubChem BioAssay AID360 (National Center for Advancing Translational Sciences (NCATS), 2006)
